Results published in PubChem BioAssay AID588342 (National Center for Advancing Translational Sciences (NCATS), 2011).
Out of some 360,000 compounds screened, about 25,000 (6.9%) were called active. Inconclusive means that the source gave no clear call. Such entries were picked first, then a sample of the others. Calls follow the shape of the dose curve; as a rule, active = well fitted inhibition curve with a large enough effect; inconclusive = small, poorly fitted or top-dose-only effect; inactive = flat fitted curve, though single readings scatter. Potencies beside an inconclusive call are fits to weak or partial responses and may not hold up.

molecular target: Luciferin 4-monooxygenase (Photinus pyralis) (UniProt P08659); assay: qHTS profiling assay for firefly luciferase inhibitor/activator using purifed enzyme and Km concentrations of substrates (counterscreen for miR-21 project); conditions: purified FLuc, luminescence inhibition; activity change, negative = inhibition: at 57.5 µM (top of the series); also: nearly all actives have a fitted effect of over 55% in size;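 as to activity change, negative = inhibition: plate controls were vehicle for no effect and reference inhibitor for full effect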
In short: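 Purified P. pyralis luciferase (10nM final) with 10uM D-luciferin and 10uM ATP (Km levels) in 50mM Tris acetate pH 7.5, 10mM Mg acetate, 0.01% Tween-20, 0.05% BSA; qHTS 6-point titration, ~60 µM downward; luminescence read.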
Potency is read from the fitted curve at half-maximal effect; tags tell the direction and shape of the fitted curve.

Sequence of UniProt P08659 (P08659 whole entry, looked up): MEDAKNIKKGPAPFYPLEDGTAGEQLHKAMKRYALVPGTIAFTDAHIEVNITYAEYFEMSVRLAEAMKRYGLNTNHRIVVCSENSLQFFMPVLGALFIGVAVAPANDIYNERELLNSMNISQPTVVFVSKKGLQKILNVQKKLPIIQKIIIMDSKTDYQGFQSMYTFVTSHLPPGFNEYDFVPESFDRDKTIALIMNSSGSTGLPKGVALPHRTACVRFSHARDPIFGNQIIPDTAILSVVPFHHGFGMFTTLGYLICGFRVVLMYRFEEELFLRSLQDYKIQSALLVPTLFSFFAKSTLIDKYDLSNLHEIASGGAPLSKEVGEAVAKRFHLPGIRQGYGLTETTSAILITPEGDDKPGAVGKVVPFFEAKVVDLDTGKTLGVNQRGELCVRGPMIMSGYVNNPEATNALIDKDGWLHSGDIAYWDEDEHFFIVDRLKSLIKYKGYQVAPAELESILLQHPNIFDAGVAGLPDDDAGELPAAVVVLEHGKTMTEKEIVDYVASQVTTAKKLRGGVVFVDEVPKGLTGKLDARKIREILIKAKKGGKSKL

How did the Potency turn out when `Cc1cccc(NS(=O)(=O)c2nnc(NC(=O)c3ccc(Cl)cc3)s2)c1` was run?
Its Potency is inconclusive: 21.3 µM [inhibitor, partial curve, poor fit].

For `CCc1nnc(NC(=O)CCC(=O)Nc2ccc(C)cc2)s1`, which “activity change, negative = inhibition” value is on record?
Its value is inactive: 2.48%.

For `COc1ccc(C(=O)NCCCOc2cccc(NC(C)=O)c2)cc1`, which Potency is on record?
The Potency was inconclusive: 37.9 µM [inhibitor, single point].

Which “activity change, negative = inhibition” value does the source give for `Cc1ccc(NC(=O)CCn2nnc3ccccc32)c(C)c1` here?
Its value is inactive: 2.03%.

With `Cc1c(Cl)cccc1NC(=O)Nc1ccc(C(=O)N2CCCC2)cc1` as the compound, how does the Potency read?
Its Potency is active: 5.36 µM.

For `Cc1ccccc1NC(=O)Nc1ccc2c(c1)CCC2`, which Potency is on record?
The Potency was active: 2.39 µM.

`CC(Sc1ncn[nH]1)C(=O)Nc1ccc(Cl)cn1` (stereo unspecified) was tested. Which “activity change, negative = inhibition” value did it give?
Its value is inactive: 4.13%.

Which Potency does the source give for `O=C1CCCc2cc(S(=O)(=O)NCC3CCC(C(=O)Nc4ccc(Cl)cc4)CC3)ccc2N1` (stereo unspecified) here?
Its Potency is inconclusive: 10.7 µM [inhibitor, partial curve, poor fit].

For `Cc1cc(Nc2ccc(Br)cc2)n2nc(-c3ccccc3C)nc2n1`, which Potency is on record?
The Potency was inconclusive: 16.9 µM [inhibitor, partial curve, poor fit].

How did the Potency turn out when `CCCCCc1ccc(-c2cn(Cc3ccc(C(=O)c4ccccc4)cc3)nn2)cc1` was run?
Its Potency is inconclusive: 8.49 µM [inhibitor, partial curve, poor fit].

With `CCc1ccc(C(=O)Nc2cccnc2Oc2ccc(Cl)cc2)cc1` as the compound, how does the Potency read?
The Potency was inconclusive: 26.9 µM [inhibitor, partial curve].

How did the “activity change, negative = inhibition” value turn out when `COc1ccc2ccc3c(c2c1)N=CC1(O3)N(C)c2ccccc2C1(C)C` (stereo unspecified) was run?
The value was inactive: -0.206%.

With `Cc1nc(N)nc(Nc2ccc(Cl)cc2)c1Br` as the compound, how does the Potency read?
Its Potency is inconclusive: 16.9 µM [inhibitor, partial curve].

`COc1ccc(-c2cc3nc(C)c(CCC(=O)NCc4ccco4)c(C)n3n2)c(OC)c1` was tested. Which “activity change, negative = inhibition” value did it give?
Its value is inactive: -13.7%.

`Nc1ncccc1OCc1ccc(Br)cc1` was tested. Which Potency did it give?
The Potency was active: 16.9 µM.

How did the Potency turn out when `OC(CCc1cccc(Cl)c1)c1cccs1` (stereo unspecified) was run?
The Potency was inconclusive: 33.8 µM [inhibitor, partial curve, poor fit].

Which Potency does the source give for `CC(C)C1Nc2c(O)cc(Cl)c([N+](=O)[O-])c2C2C=CCC21` (stereo unspecified) here?
Its Potency is inconclusive: 30.1 µM [inhibitor, single point].

Which Potency does the source give for `CC(C)[C@@H](CO)NC(=O)c1ccc2c3n(nc2c1)-c1ccccc1CO3` here?
Its Potency is active: 1.69 µM.

Which Potency does the source give for `CS(=O)(=O)N1CCc2cc(-c3csc(NC(=O)Cc4cccs4)n3)ccc21` here?
The Potency was inconclusive: 26.9 µM [inhibitor, partial curve, poor fit].

`COC(OC)c1ccnc(-c2ccc(OC(C)=O)cc2)n1` was tested. Which Potency did it give?
The Potency was inconclusive: 19 µM [inhibitor, partial curve].

How did the Potency turn out when `Cc1cc(/C=N/O)c(C)n1-c1ccccc1` was run?
Its Potency is active: 16.9 µM.

For `Cc1ccccc1NC(=O)Cc1nc(COC(=O)COc2ccc(C(C)(C)C)cc2)cs1`, which Potency is on record?
Its Potency is inconclusive: 37.9 µM [inhibitor, single point].

With `CC(C)c1ccc(/C=C2\SC(=O)N(CC(=O)NCCCn3ccnc3)C2=O)cc1` as the compound, how does the Potency read?
The Potency was active: 0.601 µM.

With `O=C1OC(c2ccccc2)=C/C1=C/N1CCCCC1` as the compound, how does the Potency read?
Its Potency is active: 6.01 µM.

How did the Potency turn out when `COc1cccc2sc(NC(=O)c3ccc4c(c3)OCCO4)nc12` was run?
Its Potency is active: 0.953 µM.

With `COc1cccc(C2CC(=O)Nc3c2c(=O)n(C)c2nc4ccccc4n32)c1OC` (stereo unspecified) as the compound, how does the Potency read?
Its Potency is inconclusive: 26.9 µM [inhibitor, partial curve, poor fit].

For `Cc1ccc(NC(=O)CSc2nnc(-c3cc(C)[nH]n3)n2N)cc1`, which Potency is on record?
Its Potency is inconclusive: 37.9 µM [inhibitor, partial curve, poor fit].

With `Cc1ccc(-n2nc3cc(C)c(NC(=O)c4ccc(-c5ccccc5)o4)cc3n2)cc1` as the compound, how does the Potency read?
The Potency was inconclusive: 21.3 µM [inhibitor, partial curve, poor fit].

Which Potency does the source give for `Cc1ccc(SC[C@H](c2ccccc2)N2CCN(CC(C)C)CCC2=O)cc1` here?
Its Potency is inconclusive: 37.9 µM [inhibitor, single point].

How did the Potency turn out when `O=C(/C=C/c1c(F)cccc1Cl)c1ccc(F)cc1` was run?
Its Potency is active: 6.75 µM.

`CCOc1ccc(NC(=O)Cn2c(=O)n(CCc3ccccc3)c(=O)c3c4c(sc32)CCCC4)cc1` was tested. Which “activity change, negative = inhibition” value did it give?
Its value is inactive: -5.72%.

`CC(C)Cc1nc2oc3c(NCC(C)O)ncnc3c2c2c1CCCC2` (stereo unspecified) was tested. Which Potency did it give?
Its Potency is inconclusive: 42.6 µM [inhibitor, partial curve, poor fit].

Which “activity change, negative = inhibition” value does the source give for `CC(=O)Nc1ccc(NC(=O)CSc2nnc(NC(=O)Cc3ccc(F)cc3)s2)cc1` here?
The value was inactive: 1.76%.

`CC(C)(C)c1ccc(Oc2ccc(NC(=O)CCCC(=O)O)cn2)cc1` was tested. Which Potency did it give?
The Potency was inconclusive: 30.1 µM [inhibitor, single point].

`CC(C)(C)c1csc(NC(=O)CS(=O)(=O)c2ccccc2)n1` was tested. Which Potency did it give?
Its Potency is inconclusive: 26.9 µM [inhibitor, single point].

With `O=C(COC(=O)CC1CCCC1)Nc1ccc(Cl)cc1` as the compound, how does the Potency read?
The Potency was active: 30.1 µM.

With `O=C1N=c2ccccc2=C1c1sc(Nc2cccc(O)c2)nc1O` as the compound, how does the Potency read?
The Potency was active: 19 µM.

`O=C(NCCc1c[nH]c2ccccc12)C(=O)NCC1OCCN1S(=O)(=O)c1cc(F)ccc1F` (stereo unspecified) was tested. Which “activity change, negative = inhibition” value did it give?
The value was inactive: -2.24%.

Which Potency does the source give for `C=CCn1c(COc2cc(C)ccc2C(C)C)nnc1SCC(=O)c1c(N)n(C)c(=O)n(C)c1=O` here?
Its Potency is active: 4.78 µM.

Which Potency does the source give for `O=C(COc1ccc(Br)cc1Br)Nc1ccc(S(=O)(=O)Nc2ncccn2)cc1` here?
The Potency was inconclusive: 13.5 µM [inhibitor, partial curve, poor fit].

`Cc1c(C(=O)OCC(=O)Nc2ccc(C(N)=O)cc2)cccc1[N+](=O)[O-]` was tested. Which “activity change, negative = inhibition” value did it give?
The value was inactive: -2.08%.

How did the Potency turn out when `CN(C)/N=C/c1ccc(OS(=O)(=O)c2ccccc2)cc1` was run?
The Potency was active: 21.3 µM.

Which Potency does the source give for `Cc1ccc(OCCOCCOc2cccc3cccnc23)c(Br)c1` here?
Its Potency is inconclusive: 37.9 µM [inhibitor, partial curve, poor fit].

`N#C/C(=N\Nc1cccc(C(F)(F)F)c1)C(=O)c1csc(-c2cccnc2)n1` was tested. Which Potency did it give?
The Potency was inconclusive: 37.9 µM [inhibitor, partial curve, poor fit].

`C=Cc1ccc(N=Cc2c(O)ccc3ccccc23)cc1` was tested. Which Potency did it give?
The Potency was active: 19 µM.

How did the Potency turn out when `Cc1cc2ncn(/N=C/c3ccc(-c4ccccc4)o3)c2cc1C` was run?
The Potency was active: 23.9 µM.

`O=C(O)c1ccc(N/N=C/c2ccc(OC(=O)c3ccccc3Cl)cc2)cc1` was tested. Which Potency did it give?
The Potency was active: 1.9 µM.

With `Oc1c(/C=N/c2ncn[nH]2)ccc2ccccc12` as the compound, how does the Potency read?
The Potency was inconclusive: 23.9 µM [inhibitor, single point].

How did the Potency turn out when `Cc1cc(C)n(-c2nc3sc4c(c3c(=O)[nH]2)CCCC4)n1` was run?
Its Potency is inconclusive: 10.7 µM [inhibitor, partial curve].

Which “activity change, negative = inhibition” value does the source give for `O=C(c1cnn(-c2cccc(F)c2)c1-n1cccc1)N1CCN(c2ccccc2F)CC1` here?
The value was inactive: -2.44%.

Which Potency does the source give for `Cc1ccc(C(=O)c2ccc(O)cc2)cc1C` here?
Its Potency is inconclusive: 33.8 µM [inhibitor, single point].

With `CCC(C)c1ccc(NC(=S)NC(C)C2CCCO2)cc1` (stereo unspecified) as the compound, how does the Potency read?
The Potency was inconclusive: 26.9 µM [inhibitor, partial curve, poor fit].

Which Potency does the source give for `CCCCOc1ccc(-c2cnc3ccccc3n2)cc1` here?
Its Potency is active: 0.426 µM.

For `COc1ccc(-c2nc(C#N)c(NCc3ccco3)o2)cc1`, which Potency is on record?
The Potency was active: 13.5 µM.

With `COc1cccc(Cc2nc3ccccc3nc2SCC(=O)NCCc2ccccc2)c1` as the compound, how does the “activity change, negative = inhibition” value read?
The value was inactive: -16.6%.

For `CCCOc1ccc(/C=N/O)cc1`, which Potency is on record?
The Potency was inconclusive: 26.9 µM [inhibitor, single point].

For `O=C(Nc1cccc(O)c1)c1ccc(NC(=O)C2CCCO2)cc1` (stereo unspecified), which Potency is on record?
Its Potency is inconclusive: 19 µM [inhibitor, partial curve].

`Cc1ccc(NC(=O)Nc2cccc(Cl)c2)c(C(=O)O)c1` was tested. Which Potency did it give?
The Potency was active: 12 µM.

`Cc1cccc(S(=O)(=O)Nc2cccc(-c3ccc(N4CCCCC4)nn3)c2)c1` was tested. Which Potency did it give?
Its Potency is active: 3.38 µM.

For `CCN(CC)C(=O)Cn1c(=O)n(-c2ccc(Cl)c(Cl)c2)c(=O)c2c(C)c(C(=O)N(CC)CC)sc21`, which “activity change, negative = inhibition” value is on record?
Its value is inactive: 0.304%.

With `COc1cc(C(=O)NCC2(N(C)C)CCCCC2)ccc1OCc1ccccc1` as the compound, how does the “activity change, negative = inhibition” value read?
Its value is inactive: 3.6%.

How did the Potency turn out when `CC(C)NC(=O)CCCOc1ccc(Cl)cc1Cl` was run?
The Potency was inconclusive: 37.9 µM [inhibitor, partial curve, poor fit].

How did the Potency turn out when `COc1cc(/C=C/c2sc3ccccc3[n+]2CCCS(=O)(=O)[O-])ccc1O` was run?
The Potency was active: 13.5 µM.

`CCCCCCCNC(=O)C1(CC2CC(c3ccc(Cl)cc3)=NO2)CCN(C(=O)C2(C)CC2)CC1` (stereo unspecified) was tested. Which “activity change, negative = inhibition” value did it give?
The value was inactive: 2%.

How did the Potency turn out when `Cc1ccc(O)c(CNc2nc3ccccc3[nH]2)c1` was run?
The Potency was inconclusive: 21.3 µM [inhibitor, partial curve].

Which Potency does the source give for `CC(=O)Nc1ccc(Nc2nc3ccccc3nc2NS(=O)(=O)c2ccccc2)cc1` here?
Its Potency is inconclusive: 19 µM [inhibitor, partial curve].

With `CC1=NN(c2cccc(Cl)c2)C(=O)C12CC(C)=C(C)CS2` (stereo unspecified) as the compound, how does the Potency read?
The Potency was inconclusive: 21.3 µM [inhibitor, partial curve].

For `Cc1ccc(CN2COc3ccc4c(C)cc(=O)oc4c3C2)cc1`, which “activity change, negative = inhibition” value is on record?
The value was inactive: 1.38%.

For `N#CCCN(Cc1cccnc1)C(=O)c1sc2cc(F)ccc2c1Cl`, which “activity change, negative = inhibition” value is on record?
Its value is inactive: 4.21%.

`Cn1c(SCc2ccccc2F)nnc1-c1cnccn1` was tested. Which Potency did it give?
The Potency was inconclusive: 23.9 µM [inhibitor, single point].

With `Clc1ccsc1-c1ccnc(-n2cccc2)n1` as the compound, how does the Potency read?
The Potency was active: 16.9 µM.

Which Potency does the source give for `Cc1ccc(C(=O)N(Cc2ccco2)Cc2sccc2C)cc1` here?
Its Potency is inconclusive: 15.1 µM [inhibitor, partial curve, poor fit].

`COc1cc(OC)c(C(=O)O/N=C(\N)c2ccccc2)cc1OC` was tested. Which “activity change, negative = inhibition” value did it give?
Its value is inactive: -15.6%.

Which Potency does the source give for `Cc1noc(C)c1COC(=O)c1cc(C)n(-c2ccccc2)c1C` here?
Its Potency is active: 15.1 µM.

With `Clc1ccc(-c2nnc(COc3ncnc4ccccc34)o2)cc1` as the compound, how does the Potency read?
Its Potency is inconclusive: 33.8 µM [inhibitor, single point].

`Cc1ccc(C)c(N=Cc2c(O)c3ccccc3oc2=O)c1` was tested. Which Potency did it give?
Its Potency is active: 3.01 µM.
